From the supplement of paper PMC12217912 come the findings set out here.

The labels stand for the following.
B1: TEV protease; numbered along this chain (parent)
chain: MGESLFKGPRDYNPISSSICHLTNESDGHTTSLYGIGFGPFIITNKHLFRRNNGTLVVQSLHGVFKVKDTTTLQQHLVDGRDMIIIRMPKDFPPFPQKLKFREPQREERICLVTTNFQTKSMSSMVSDTSCTFPSGDGIFWKHWIQTKDGQCGSPLVSTRDGFIVGIHSASNFTNTNNYFTSVPKNFMELLTNQEAQQWVSGWRLNADSVLWGGHKVFMVKPEEPFQPVKEATQL

Variants of B1 are the subject of this assay. In words: raw area under fraction-flipped curve 0-4 h after induction (AUC4h, not background-subtracted), DNA-recorder readout of cleavage of the substrate (dimensionless); higher = more cleavage of the substrate by the protease variant. To be noted: temperature: 34 °C; time window: 0-4 h after rhamnose induction.

The list shows a part of the results. The full chains were built here from the parent and the listed change. Inactive controls read about 0.05.
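Note: Bxb1 expression induced with 0.2% (w/v) L-rhamnose at OD600 near 0.5, cultures sampled hourly, flipped fraction per protease–substrate barcode pair counted by paired-end Illumina sequencing.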

On to MGESLFKGPRDYNPISSSICHLTNESDGHTTSLYGIGFGPFIITNKHLFRRNNGTLVVQSLHGVFKVKDTTTLQQHLVDGRDMIIIRMPKDFPPFPQKLKFREPQKEERICLVTTNFQTKSMSSMVSDTSCTFPSGDGIFWKHWIQTKDGQCGSPLVSTRDGFIVGIHSASNFTNTNNYFTSVPKNFMELLTNQEAQQWVSGWRLNADSVLWGGHKVFMVKPEEPFQPVKEATQL [R106K], for which the “area with substrate ENLYFDS” value is 0.0618, the “area with substrate ENLYFES” value was determined as 0.0491, the “area with substrate ENLYFHS” value worked out at 0.0562 and the “area with substrate ENLYFLS” value is 0.0533. Moreover, the “area with substrate ENLYFPS” value worked out at 0.0619 and the “area with substrate ENLYFRS” value is 0.0589.
Turning to MGYSLFKGPRDYNPISSSICHLTNESDGHTTSLYGIGFGPFIITNKHLFRRNNGTLVVQSLHGVFKVKDTTTLQQHLVDGRDMIIIRMPKDFPPFPQKLKFREPQREERICLVTTNFQTKSMSSMVSDTSCTFPSGDGIFWKHWIQTKDGQCGSPLVSTRDGFIVGIHSASNFTNTNNYFTSVPKNFMELLTNQEAQQWVSGWRLNADSVLWGGHKVFMVKPEEPFQPVKEATQL [E3Y], the “area with substrate ENLYFES” value was found to be 0.0671, the “area with substrate ENLYFFS” value amounted to 0.0769, the “area with substrate ENLYFIS” value was determined as 0.0512 and the “area with substrate ENLYFNS” value was determined as 0.0789. The “area with substrate ENLYFPS” value was determined as 0.0626, the “area with substrate ENLYFTS” value came out at 0.071 and the “area with substrate ENLYFVS” value was determined as 0.0514.
For the variant MGESLFKGPRDYNPISSSICHLTNESDGHTTSLYGIGFGPFIITNKHLFRRNNGTLVVQSLHGVFKVKDTTTLQQHLVDGRDMIIIRMPKDFPPFPQKLKFREPQREERICLVTTNFQTKSMSSMVSDTSCTFPSGDGIFWKHWIQTKDGQCGSPLVSTRDGFIVGIHSASNFTNTNNYFTSVPKNFMELLTNQEAQQWKSGWRLNADSVLWGGHKVFMVKPEEPFQPVKEATQL [V200K], the “area with substrate ENLYFDS” value was determined as 0.0626 and the “area with substrate ENLYFIS” value was 0.0508.
For MGESLFKGPRDYNPISSSICHLTNESDGHTTSLYGIGFGPFIITNKHLFRRNNGTLVVQSLHGVFKVKDTTTLQQHLVDGRDMIIIRMPKDFPPFPQKLKFREPQREERICLVTTNFQTKSMSSMVSDTSCTFPSGDGIFWKHWIQTKDGQCGSPLVSTRDGFIVGIHSASNFTNTNNYFTSVPKNFMELLTSQEAQQWVSGWRLNADSVLWGGHKVFMVKPEEPFQPVKEATQL [N193S], the “area with substrate ENLYFDS” value amounted to 0.0552, the “area with substrate ENLYFES” value was found to be 0.0414, the “area with substrate ENLYFIS” value came to 0.0365 and the “area with substrate ENLYFNS” value was 0.0665. For the same variant, the “area with substrate ENLYFPS” value is 0.055 and the “area with substrate ENLYFWS” value came out at 0.0487.
As to MGESLFKGPRDYNPISSSICHLTNESDGHTTSLYGIGFGPFIITNKHLFRRNNGTLVVQTLHGVFKVKDTTTLQQHLVDGRDMIIIRMPKDFPPFPQKLKFREPQREERICLVTTNFQTKSMSSMVSDTSCTFPSGDGIFWKHWIQTKDGQCGSPLVSTRDGFIVGIHSASNFTNTNNYFTSVPKNFMELLTNQEAQQWVSGWRLNADSVLWGGHKVFMVKPEEPFQPVKEATQL [S60T], the “area with substrate ENLYFDS” value came out at 0.0635, the “area with substrate ENLYFES” value was found to be 0.0631, the “area with substrate ENLYFFS” value amounted to 0.052 and the “area with substrate ENLYFHS” value came out at 0.0604. The “area with substrate ENLYFIS” value stood at 0.0632, the “area with substrate ENLYFLS” value stood at 0.058, the “area with substrate ENLYFMS” value worked out at 0.062 and the “area with substrate ENLYFPS” value came out at 0.0594. In addition, the “area with substrate ENLYFRS” value worked out at 0.0686, the “area with substrate ENLYFSS” value amounted to 0.0645, the “area with substrate ENLYFTS” value turned out to be 0.0719 and the “area with substrate ENLYFWS” value turned out to be 0.0489. For the same variant, the “area with substrate ENLYFYS” value turned out to be 0.0642.
As for MGESLFKGPRDYNPISSSICHLTFESDGHTTSLYGIGFGPFIITNKHLFRRNNGTLVVQSLHGVFKVKDTTTLQQHLVDGRDMIIIRMPKDFPPFPQKLKFREPQREERICLVTTNFQTKSMSSMVSDTSCTFPSGDGIFWKHWIQTKDGQCGSPLVSTRDGFIVGIHSASNFTNTNNYFTSVPKNFMELLTNQEAQQWVSGWRLNADSVLWGGHKVFMVKPEEPFQPVKEATQL [N24F], the “area with substrate ENLYFDS” value worked out at 0.062, the “area with substrate ENLYFES” value is 0.0573, the “area with substrate ENLYFFS” value was 0.0315 and the “area with substrate ENLYFGS” value was 0.0511. The “area with substrate ENLYFHS” value was determined as 0.0702, the “area with substrate ENLYFIS” value worked out at 0.0646, the “area with substrate ENLYFKS” value turned out to be 0.051 and the “area with substrate ENLYFLS” value stood at 0.0539. Moreover, the “area with substrate ENLYFMS” value is 0.0712, the “area with substrate ENLYFNS” value is 0.0634, the “area with substrate ENLYFPS” value came out at 0.0718 and the “area with substrate ENLYFRS” value was 0.0564. For the same variant, the “area with substrate ENLYFSS” value came out at 0.06, the “area with substrate ENLYFTS” value turned out to be 0.0583, the “area with substrate ENLYFVS” value came out at 0.062 and the “area with substrate ENLYFWS” value was found to be 0.054.
On to MGESLFKGPRDYNPISSSICHLTNESDGHTTSLYGIGFGPFIITNKHLFRRNNGTLVVQSLHGDFKVKDTTTLQQHLVDGRDMIIIRMPKDFPPFPQKLKFREPQREERICLVTTNFQTKSMSSMVSDTSCTFPSGDGIFWKHWIQTKDGQCGSPLVSTRDGFIVGIHSASNFTNTNNYFTSVPKNFMELLTNQEAQQWVSGWRLNADSVLWGGHKVFMVKPEEPFQPVKEATQL [V64D], for which the “area with substrate ENLYFDS” value amounted to 0.065, the “area with substrate ENLYFES” value is 0.0724, the “area with substrate ENLYFFS” value stood at 0.0178 and the “area with substrate ENLYFHS” value was 0.0441. Besides, the “area with substrate ENLYFIS” value came to 0.0502, the “area with substrate ENLYFKS” value is 0.0527, the “area with substrate ENLYFMS” value was 0.04 and the “area with substrate ENLYFNS” value came out at 0.0589. Besides, the “area with substrate ENLYFPS” value amounted to 0.0494, the “area with substrate ENLYFTS” value was 0.0573, the “area with substrate ENLYFVS” value was found to be 0.0569 and the “area with substrate ENLYFWS” value is 0.0568. Besides, the “area with substrate ENLYFYS” value was determined as 0.0597.
With MGESLFKGPRDYNPISSSICHLTNESDGHTTSLYGIGFGPFIITNKHLFRRNNGTLVVQSLHGVFKVKDTTTLQQHLVDGRDMIIIRMPKDFPPFPQKLKFREPQREERICLVTTNFQTKSMSSMVSDTSCTFPSGDGIFWKHWIQTKDGQCGSPLVSTRDGFIVGIHSASNFTNTNNYFTSVEKNFMELLTNQEAQQWVSGWRLNADSVLWGGHKVFMVKPEEPFQPVKEATQL [P184E], the “area with substrate ENLYFDS” value was determined as 0.0522, the “area with substrate ENLYFES” value came out at 0.0442, the “area with substrate ENLYFFS” value is 0.0577 and the “area with substrate ENLYFHS” value was found to be 0.0497. The “area with substrate ENLYFIS” value came out at 0.038, the “area with substrate ENLYFKS” value was found to be 0.045, the “area with substrate ENLYFMS” value was determined as 0.0491 and the “area with substrate ENLYFNS” value came to 0.0427. Besides, the “area with substrate ENLYFPS” value came to 0.0504, the “area with substrate ENLYFRS” value was 0.0381, the “area with substrate ENLYFSS” value was determined as 0.0529 and the “area with substrate ENLYFTS” value came to 0.0535.
On to MGESLFKGPRDYNPISSSICHLTNESDGHTTSLYGIGFGPFIITNKHLFRRNNGTLVVQSLHGVFKVKDTTTLQQHLVDGRDMIIIRMPKDFPPFPQKLKFREPQREERICLVTTNFQTKSMSSMVSDTSCTFPSGDGIFWKHWEQTKDGQCGSPLVSTRDGFIVGIHSASNFTNTNNYFTSVPKNFMELLTNQEAQQWVSGWRLNADSVLWGGHKVFMVKPEEPFQPVKEATQL [I145E], for which the “area with substrate ENLYFDS” value was determined as 0.067, the “area with substrate ENLYFFS” value is 0.0501, the “area with substrate ENLYFHS” value worked out at 0.0498 and the “area with substrate ENLYFIS” value was determined as 0.0608. Moreover, the “area with substrate ENLYFKS” value was found to be 0.0444, the “area with substrate ENLYFMS” value is 0.0801, the “area with substrate ENLYFNS” value came to 0.0656 and the “area with substrate ENLYFPS” value was found to be 0.0582. The “area with substrate ENLYFTS” value was determined as 0.0662 and the “area with substrate ENLYFVS” value came to 0.0183.
As to MGESLFKGPRDYNPISSSICHLTNESDGHTTSLYRIGFGPFIITNKHLFRRNNGTLVVQSLHGVFKVKDTTTLQQHLVDGRDMIIIRMPKDFPPFPQKLKFREPQREERICLVTTNFQTKSMSSMVSDTSCTFPSGDGIFWKHWIQTKDGQCGSPLVSTRDGFIVGIHSASNFTNTNNYFTSVPKNFMELLTNQEAQQWVSGWRLNADSVLWGGHKVFMVKPEEPFQPVKEATQL [G35R], the “area with substrate ENLYFES” value is 0.104, the “area with substrate ENLYFHS” value amounted to 0.0448, the “area with substrate ENLYFIS” value was 0.0386 and the “area with substrate ENLYFLS” value was found to be 0.0399. In addition, the “area with substrate ENLYFNS” value amounted to 0.0482, the “area with substrate ENLYFRS” value was determined as 0.045 and the “area with substrate ENLYFTS” value came out at 0.0522.
